Measurements from PubChem BioAssay AID488969 (Vanderbilt High Throughput Screening Facility, 2010).
Over roughly 110,000 compounds, “z-score” has its median near -0.1; the highest 2% begin near 2. The list shows a part of the results.

What follows are molecules tested against Metabotropic glutamate receptor 8 (Rattus norvegicus) (UniProt P70579) (assay: mGluR8 Gi/Go-coupled signaling modulation – cell-based, rat, thallium flux, HTS, primary screen (AID 488969)). Details: HEK293 rat mGluR8, GIRK (G protein-gated inwardly rectifying potassium channel) thallium flux, FluoZin2; at 10 µM; stronger effect = higher value; submaximal glutamate (EC20) added with thallium.
Sequence of UniProt P70579 (P70579 whole entry, looked up): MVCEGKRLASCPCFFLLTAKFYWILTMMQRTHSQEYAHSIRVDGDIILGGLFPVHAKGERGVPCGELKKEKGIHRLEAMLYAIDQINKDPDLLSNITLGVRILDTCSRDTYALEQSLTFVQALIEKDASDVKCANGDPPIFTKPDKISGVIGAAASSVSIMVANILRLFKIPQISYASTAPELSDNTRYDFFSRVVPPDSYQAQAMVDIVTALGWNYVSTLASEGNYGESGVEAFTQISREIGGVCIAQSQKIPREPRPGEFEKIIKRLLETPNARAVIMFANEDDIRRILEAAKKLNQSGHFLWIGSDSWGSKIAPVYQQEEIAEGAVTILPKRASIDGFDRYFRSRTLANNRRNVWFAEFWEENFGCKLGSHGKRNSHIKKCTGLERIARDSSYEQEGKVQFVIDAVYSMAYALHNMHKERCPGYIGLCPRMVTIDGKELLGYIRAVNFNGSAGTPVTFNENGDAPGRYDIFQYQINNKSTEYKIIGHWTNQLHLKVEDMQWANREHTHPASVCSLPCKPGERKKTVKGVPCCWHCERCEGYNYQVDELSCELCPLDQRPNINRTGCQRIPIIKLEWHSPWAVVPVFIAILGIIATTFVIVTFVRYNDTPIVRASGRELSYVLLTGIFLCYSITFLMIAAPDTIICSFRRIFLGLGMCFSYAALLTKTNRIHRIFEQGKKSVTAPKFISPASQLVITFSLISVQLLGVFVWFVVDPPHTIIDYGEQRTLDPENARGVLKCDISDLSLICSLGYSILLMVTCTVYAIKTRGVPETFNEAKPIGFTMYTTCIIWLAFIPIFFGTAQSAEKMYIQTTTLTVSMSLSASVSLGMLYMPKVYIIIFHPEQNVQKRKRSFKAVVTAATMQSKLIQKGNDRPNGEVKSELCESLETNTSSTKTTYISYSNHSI

| SMILES | z-score |
| --- | --- |
| CCCCSc1nnc(-c2ccc(NC(C)=O)cc2)n1C | -0.138 |
| CC(=O)Nc1ccccc1OC(C)C(=O)NC(C)c1ccc(F)cc1 (centres undefined) | -0.113 |
| Oc1ccc(/C=N/Nc2cc(N3CCOCC3)nc(N3CCOCC3)n2)cc1 | -0.137 |
| CCCCOc1ccc(-c2ncc(C(=O)OCC)c(N)n2)cc1 | 0.409 |
| COc1ccc(OCCSc2nnc(CCNC(=O)c3ccc(Cl)c(Cl)c3)n2C)cc1 | -0.372 |
| O=C(Nc1nnc(C2CC2)s1)c1cccc(S(=O)(=O)N2CC(c3ccccc3)CC2=O)c1 (centres undefined) | -0.463 |
| CC1=C(C(=O)OC(C)(C)C)C(c2ccco2)C(C#N)=C(N)O1 (centres undefined) | -0.4 |
| Cc1c(N2C(=O)C(C)SC23C(=O)Nc2ccccc23)c(=O)n(-c2ccccc2)n1C (centres undefined) | -0.12 |
| COc1ccccc1-c1noc(-c2ccncc2)n1 | 0.306 |
| Cc1ccc(N(CC(=O)O)S(C)(=O)=O)cc1Cl | 0.0594 |
| COc1cc(/C=N/NC(=O)c2cc(-c3cccn3C)n[nH]2)cc(OC)c1OC | -0.482 |
| CNC(=O)c1cc2ccccc2o1 | -1.01 |
| O=C(N=Nc1c(O)[nH]c2ccccc12)c1ccccc1NS(=O)(=O)c1cccs1 | 0.524 |
| CCCCCCC(=O)N/N=C/c1ccc(Br)cc1 | -0.143 |
| CC1=C(C(=O)Nc2ccccc2C)C2(CCCC2)C(C(N)=O)C(=O)N1 (centres undefined) | -0.14 |
| CCOc1ccccc1NC(=O)C1CC2CCCC(C1)C2=O (centres undefined) | -0.178 |
| O=C(c1ccc([N+](=O)[O-])cc1)n1nc(-c2ccccc2)nc1NCc1ccccc1 | -0.233 |
| Cc1csc(NC(=O)CSc2nnc(-c3ccncc3)o2)n1 | -0.104 |
| CN(c1ccc(C(=O)N2CCCCC2)cc1)S(C)(=O)=O | 0.156 |
| O=C(/C=N/O)Nc1cccnc1 | 1 |
| CCOc1cc(C2C(C(=O)OC)=C(C)N=C3SC(C)C(=O)N32)ccc1OC(C)=O (centres undefined) | -0.586 |
| O=C1CC2(CCCCC2)Oc2ccc(OCC(=O)N3CCOCC3)cc21 | -0.0335 |
| Cc1ccc(C)c(OCCn2c(=O)c3c(ncn3C3CCCC3)n(Cc3ccccc3)c2=O)c1 | -0.0704 |
| Cn1c(CN2CCCCC2)nc2cc(NC(=O)c3cccs3)ccc21 | -0.23 |
| CCOc1ccc(C(c2c(NC(=O)c3ccccc3)sc(C)c2C)N2CCN(C)CC2)cc1 (centres undefined) | -0.251 |
| COC(=O)CNC(=O)CN1C(=O)N(c2ccccc2)C(N(O)C(=O)Nc2ccccc2)C1(C)C (centres undefined) | -0.083 |
| CCOc1cccc(Nc2cc3n(c(=O)n2)CCc2cc(OC)c(OC)cc2-3)c1 | -0.11 |

| SMILES | z-score |
| --- | --- |
| CCOc1ccc2nc(NC(=O)CSc3nc4ccccc4c(=O)n3Cc3ccco3)sc2c1 | 0.2 |
| O=S(=O)(Cc1ccc(Cl)cc1)NCC1CCCO1 (centres undefined) | 0.728 |
| CCCOC(=O)COC(=O)c1ccccc1NC(=O)c1ccccc1 | -0.232 |
| CC(=O)Oc1ccccc1C1OCCN1C(C)=O (centres undefined) | 1.1 |
| Cc1ccc2cc(CCNC(=O)c3ccc4c(c3)OCO4)c(=O)[nH]c2c1 | -1.21 |
| CCCCCCCC(=O)N/N=C/c1ccc([N+](=O)[O-])o1 | -0.435 |
| CC1(C)OC(=O)N(c2cccnc2)C1(C)O (centres undefined) | -0.26 |
| CCCCCC(=O)Nc1nc(C)c(-c2csc(Nc3ccc(Cl)cc3)n2)s1 | 0.234 |
| Clc1ccc(SCCCCn2cncn2)cc1 | 0.0273 |
| Nc1ccc2c(c1)C(=O)N(CCCC(=O)O)C2=O | 0.27 |
| CCOc1cc(C(=O)NCCOC)ccc1OC | 0.21 |
| Cc1ccc(O)c(C(=O)c2cnc3c(c2)CN(C)C(=O)N3)c1 | -0.261 |
| O=C(CCN1C(=O)c2ccccc2C1=O)NC(=S)Nc1ccccc1 | -0.0912 |
| CC(NC(=O)Nc1ccccc1)C(c1cccs1)N1CCOCC1 (centres undefined) | -0.0822 |
| FC(F)(F)c1cc(-c2ccco2)nc(N2CCN(Cc3ccccc3)CC2)n1 | -0.284 |
| COc1cc(C(C(=O)NC2CCCCC2)N(C(=O)Cc2c[nH]c3ccccc23)c2ccc(C)cc2)cc(OC)c1OC (centres undefined) | -1.29 |
| Cc1ccccc1NC(=O)CSc1ccsc1[N+](=O)[O-] | -0.219 |
| CC(=NC1CC1)c1c(-c2ccccc2)[nH]n(-c2nc3ccccc3s2)c1=O | -0.25 |
| CCC1CCc2c(sc(NC(C)=O)c2C#N)C1 (centres undefined) | -0.146 |
| COc1ccc(-n2c(SCC(=O)Nc3nccs3)nnc2-c2ccoc2C)cc1 | -0.401 |
| O=C(C1CCN(S(=O)(=O)Cc2ccccc2)CC1)N1CCCc2ccccc21 | -0.24 |
| CS(=O)(=O)N(CC(=O)NCC1CCCO1)c1ccc(Cl)c(Cl)c1 (centres undefined) | -0.312 |
| O=C(NC(=S)Nc1ccc(NC(=O)c2cccs2)cc1)c1ccc([N+](=O)[O-])cc1 | -0.519 |
| O=C(Cc1ccc([N+](=O)[O-])cc1)NCc1ccccc1Cl | -0.208 |
| Cc1ccc(Cn2cnc3sc4c(c3c2=O)CCC4)c(C)c1 | -0.17 |
| O=C(OCCN(CCOC(=O)c1ccncc1)S(=O)(=O)c1cccs1)c1ccncc1 | -0.23 |
| Cc1c(NC(=O)c2cc(-n3cnnc3)ccc2Cl)cccc1-c1nc2ccccc2s1 | -0.154 |
